Experimental findings from ChEMBL document CHEMBL4888484, “Replenishing the malaria drug discovery pipeline: Screening and hit evaluation of the MMV Hit Generation Library 1 (HGL1) against asexual blood stage Plasmodium falciparum ,using a nano luciferase reporter read-out” (2022) are described below.

The experiment deals with Plasmodium falciparum. Nature of the experiment: Primary screen in NF54 nanoGlo assay, in single point, at 2uM, 72h; a lower Z score goes with more inhibition. The class given is functional, Erythrocyte. The following applies: timepoint 72 hour.

Among all 150,000 compounds or so, about 540 (0.36%) showed an effect of 50% or more. Some of the results follow.

Broadly, the % Inhibition is the drop in the measured response relative to a control, in per cent. `COc1ccc(N2CCN(C(=O)Nc3snnc3C(=O)N3CCN(c4ccccn4)CC3)CC2)cc1`: the “% Inhibition” value amounted to 4% and the Z score is recorded as -0.49.
For `CCNC(=O)c1ccccc1NCc1noc2c1COCC2`, the “% Inhibition” value is listed as -14% and the Z score amounted to 1.62.
Take `COc1ccc(C(NC2CCN(C)C2=O)c2ccc(C)cc2)cc1` (configuration not stated): the “% Inhibition” value is reported as -8% and the Z score is given as 0.81.
As to `Cc1cccc(C(=O)Nc2nn(C)c3c2C[C@H](C)C(=O)N3)c1`, the “% Inhibition” value stood at 9% and the Z score is on record as -1.14.
Take `Cc1cc(C)n(-c2nc3c(c(=O)n2CC(=O)NCc2ccc4c(c2)OCO4)CCC3)n1`: the “% Inhibition” value was -2% and the Z score turned out to be 0.25.
Regarding `N#CC1(C(=O)Nc2ccc(NC[C@H]3CCCO3)c(F)c2)CCCCC1`, the “% Inhibition” value is reported as -14% and the Z score is listed as 1.76.
For the compound `CC(C)c1nnc(NCc2csc(-c3ccccn3)n2)s1`, the “% Inhibition” value was -22% and the Z score is on record as 4.47.
For the compound `c1cc(-c2nc(C3CCOCC3)nn2C[C@H]2COCCO2)n[nH]1`, the “% Inhibition” value is listed as -6% and the Z score is 0.79.
`O=c1[nH]nc(CCc2ccccc2)n1Cc1ccccc1F`: the “% Inhibition” value is listed as -10% and the Z score is 1.96.
`CN(C)CC(=O)N1CCCC[C@@H]1CCc1ccccn1`: the “% Inhibition” value was -17% and the Z score came out at 2.29.
As to `c1ccc2c(C(c3c[nH]c4ccccc34)c3c[nH]c4ccccc34)c[nH]c2c1`, the “% Inhibition” value is listed as -27% and the Z score was 3.19.
On to `Cc1ccccc1[C@H](C(=O)O)N1CCC2(CC1)COCCO2`, for which the “% Inhibition” value is recorded as -3% and the Z score was determined as 0.53.
Consider `O=C(c1nc(=O)[nH][nH]1)N1CCCC1CC(O)c1ccccc1` (configuration not stated), for which the “% Inhibition” value is recorded as -2% and the Z score is listed as 0.35.
As for `C#CCN(CC1CC1)C(=O)CC1(O)CCCCC1`, the “% Inhibition” value is -8% and the Z score was found to be 0.86.
For the compound `O=C(CCc1ccc(-c2ccccc2)cc1)N[C@@H]1C[C@H]2OCC[C@@H]12`, the “% Inhibition” value is -3% and the Z score came to 0.61.
Consider `Cc1nc(C)c(C(=O)NC[C@@H](O)Cc2ccc(F)cc2F)s1`, for which the “% Inhibition” value is -11% and the Z score worked out at 1.14.
Turning to `Cc1nc(-c2c(C)noc2C)sc1C(=O)N(CC(C)C)C(C)C`, the “% Inhibition” value stood at 3% and the Z score was -0.46.
With `Cc1cc2sc(N)nc2cc1-c1cccc(C(=O)N2CC=C[C@@H]2C(C)C)c1`, the “% Inhibition” value was -29% and the Z score was 2.6.
For `COCc1nc(C)c(CNC(=O)c2cnccn2)s1`, in that order: -4% and 0.7.
In the case of `CCCNCc1cc(Br)ccc1OCC(N)=O`, where the note is “2 µM”, the “% Inhibition” value is given as -6%.
With `Cc1ccc(NC(=O)C2CC2c2ccccc2)cc1NC(=O)C1CC1c1ccccc1` (configuration not stated), the “% Inhibition” value was found to be 32% and the Z score is on record as -4.17.
In the case of `c1cc(N2CCNCC2)ccc1-c1noc(C2CCC2)n1`, the “% Inhibition” value is given as -12% and the Z score is 1.53.
Turning to `O=C(COc1ncccn1)N1CCCCC1`, the “% Inhibition” value was -32% and the Z score is 2.81.
On to `COC(OC)C(NC(=O)COCC1CCCO1)c1ccccc1` (configuration not stated), for which the “% Inhibition” value is given as -17% and the Z score is 2.47.
